Hit rate of the full screen: of about 420,000 compounds, about 64,000 (15%) were called active. This list was built around the results that the source calls inconclusive (neither active nor inactive); the mix of calls is not that of the screen. Calls follow the shape of the dose curve; as a rule, active = well fitted inhibition curve with a large enough effect; inconclusive = small, poorly fitted or top-dose-only effect; inactive = flat fitted curve, though single readings scatter. No potency is given beside an inconclusive call; the fits are too rough.
Experiment: qHTS for Inhibitors of human tyrosyl-DNA phosphodiesterase 1 (TDP1): qHTS in cells in absence of CPT; also: nearly all actives have a fitted effect of over 55% in size
Settings: DT40 Tdp1-/- hTDP1 cells, no CPT, ATP luminescence, 48 h; activity change, negative = growth inhibition: at 46.2 µM (top of the series) unless noted
Method in brief: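 Chicken DT40 Tdp1-/- cells stably complemented with human TDP1 were seeded at 400 cells/well with DMSO in place of 20 nM camptothecin. After compound pinning, cells grew at least 48 hr at 37 °C; viability read by CellTiter-Glo luminescence.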
% is scaled to controls: 0 for no effect and ±100 for the full control effect; potency is read from the fitted curve at half-maximal effect; tags tell the direction and shape of the fitted curve.

Row | SMILES | Potency | activity change, negative = growth inhibition
1 | CCN1C(=O)[C@@H]2[C@@H](c3ccc(-c4ccc5c(c4)OCO5)c(OC)c3)N3CCC[C@@]3(C(=O)OC)[C@@H]2C1=O | inconclusive [inhibitor, single point] | –
2 | COc1ccc2c(CNCCc3cccs3)c(C(=O)O)n(Cc3ccc(F)cc3Cl)c2c1 | active: 6.51 µM | –
3 | CCN(CC(=O)Nc1cc(Cl)ccc1C)C(=O)C1CCCCC1 | inactive | –
4 | CCCc1ccc(S(=O)(=O)Nc2ccc(C)c(NS(C)(=O)=O)c2)cc1 | inconclusive [inhibitor, single point] | –
5 | CC1CCN(C(=S)c2ccccc2O)CC1 | inconclusive [inhibitor, single point] | –
6 | CN1CCN(c2ncc3nc(CCc4ccccc4)c(=O)n(C)c3n2)CC1 | inconclusive [inhibitor, single point] | –
7 | CCN1C(=O)[C@H]2[C@@H](c3ccc(-c4ccccc4)c(OC)c3)N[C@@](CC(C)C)(C(=O)OC)[C@H]2C1=O | active: 14.6 µM | –
8 | O=C(Nc1ccc2c(c1)CCC2)c1cc(F)cc(F)c1 | inactive | –
9 | CCn1c(COc2ccccc2C)nnc1SCC(=O)CC(=O)Nc1ccccc1OC | inconclusive [inhibitor, partial curve, poor fit] | –
10 | COC(=O)c1cc(CNC(=O)c2ccccc2)cc(NC(=O)c2ccccc2OC)c1 | inconclusive [inhibitor, single point] | –
11 | O=C(CCCCCNc1nc(=S)[nH]c2ccccc12)NCCc1ccc(Cl)cc1 | – | inconclusive: -32.2% [inhibitor]
12 | Cc1cc(C)c(C(N)=O)c(SCC(=O)c2ccc(Cl)cc2)n1 | inconclusive [inhibitor, single point] | –
13 | CCOc1ccc(CN(CCc2ccc3c(c2)OCO3)Cc2cc(OC)c(OC)cc2OC)cc1 | active: 14.6 µM | –
14 | Cc1ccc(S(=O)(=O)N2CCCC2CNC(=O)C(=O)NCc2cccs2)cc1 (stereo not given) | inconclusive [inhibitor, single point] | –
15 | CCS(=O)(=O)N1Cc2ccccc2CC1C(=O)Nc1nnc(SCc2ccc(F)cc2)s1 (stereo not given) | inconclusive [inhibitor, single point] | –
16 | CCOc1ccc(NC(=O)CC2C(=O)N(c3cccc(C)c3)C(=O)N2Cc2cccs2)cc1 (stereo not given) | active: 20.6 µM | –
17 | CC1CCC2(CC1)NC(=O)N(CC(=O)Nc1cccc(S(=O)(=O)N3CCOCC3)c1)C2=O (stereo not given) | inactive | –
18 | Cc1nc(N)c(Br)c(C)c1Br | inactive | –
19 | C/C(N)=C(/C#N)C(=O)CSc1nnc(Nc2c(C)cccc2C)s1 | inactive | –
20 | Cn1c(CC(=O)NNC(=O)c2ccccc2F)nc2ccccc21 | inconclusive [inhibitor, single point] | –
21 | COc1ccc(C)cc1NC(=O)c1cc(S(=O)(=O)N2CCCCC2)c[nH]1 | inconclusive [inhibitor, single point] | –
22 | O=C(c1ccc(N2CCN(S(=O)(=O)c3ccccc3)CC2)c([N+](=O)[O-])c1)N1CCOCC1 | active: 20.6 µM | –
23 | CCOC(=O)N1CCN(C(=O)c2cc(S(=O)(=O)N3CCc4ccccc43)ccc2OC)CC1 | inconclusive [inhibitor, single point] | –
24 | S=C(NCCCc1ccccc1)Nc1ccccc1 | inconclusive [inhibitor, single point] | –

Row | SMILES | Potency | activity change, negative = growth inhibition
25 | CCN(C(=O)c1cnc(OC)cc1C(F)(F)F)c1ccc(Cl)cc1Cl | – | inconclusive: -36.1% [inhibitor]
26 | O=C(CSc1nnc(COc2ccc(Cl)cc2)o1)N1c2ccccc2CCc2ccccc21 | active: 14.6 µM | –
27 | COc1cc(NC(=O)CCc2c(C)nn(-c3ccc(N4CCCCC4)nn3)c2C)cc(OC)c1OC | inconclusive [inhibitor, single point] | –
28 | CC(=O)c1sc2c(c1N)c(=O)[nH]c(=O)n2-c1ccccc1 | inconclusive [inhibitor, single point] | –
29 | COc1ccc(NC(=O)CN2CCN(S(=O)(=O)c3ccc(Cl)cc3)CC2)cc1 | inconclusive [inhibitor, partial curve] | –
30 | COc1cc(NC(=O)C2CCCCC2)c(OC)cc1NC(=O)c1ccco1 | inconclusive [inhibitor, partial curve] | –
31 | Cc1cc(C)cc(NC(=O)CCCc2nc(-c3ccco3)no2)c1 | inactive | –
32 | O=C(NC(=S)Nc1ncc(Br)cc1Br)c1ccccc1 | inconclusive [inhibitor, single point] | –
33 | CCN(CC)CCn1c(NCc2cccc(OC)c2)nc2ccccc21 | inconclusive [inhibitor, single point] | –
34 | Cc1cc(-n2c(C)nc3ccccc3c2=O)ccc1NC(=O)c1ccccc1[N+](=O)[O-] | active: 16.4 µM | –
35 | CCCC(c1nnnn1CCOC)N(Cc1cc2cc(C)c(C)cc2[nH]c1=O)CC1CCCO1 (stereo not given) | inconclusive [inhibitor, partial curve] | –
36 | COc1ccc(-n2c(=O)c(CCc3ccccc3)nc3cnc(N4CCOCC4)nc32)cc1 | inactive | –
37 | CCOC(=O)/C(C#N)=C/c1cc2ccccc2nc1N1CCCCC1 | inconclusive [inhibitor, single point] | –
38 | COc1ccc(CNC(=O)NCc2ccc(OC)c(OC)c2)cc1OC | inactive | –
39 | CC(=O)NC(CC(=O)OCC(=O)c1c(N)n(C)c(=O)n(C)c1=O)c1ccccc1 (stereo not given) | inconclusive [inhibitor, single point] | –
40 | Cc1nc(-c2ccc(F)cc2)sc1CCNC(=O)C(=O)Nc1ccc2c(c1)OCCO2 | inconclusive [inhibitor, partial curve] | –
41 | O=C(Nc1ccc(F)cc1)Nc1sccc1-c1nc2ccccc2s1 | inconclusive [inhibitor, single point] | –
42 | COc1ccc(NC(=O)CSCC(=O)Nc2ccccc2N2CCCCC2)cc1 | active: 29.1 µM | –
43 | CC(C)CN1CCCC2(CCN(C(=O)c3cccc(F)c3)CC2)C1 | inactive | –
44 | CSc1ccc(C2Nc3cccc4cccc(c34)N2)cc1 | inconclusive [inhibitor, single point] | –
45 | COc1ccccc1N1CCN(C(=O)c2ccc(S(=O)(=O)N3CCCCCC3)cc2)CC1 | inconclusive [inhibitor, single point] | –
46 | O=C(Nc1ccc([N+](=O)[O-])cc1)Nc1ccc(OC(F)F)c(Cl)c1 | active: 1.64 µM | –
47 | CCCOc1ccc(/C=N/NC(=O)C2CCCN2S(=O)(=O)c2ccc(Cl)cc2)cc1 (stereo not given) | inconclusive [inhibitor, single point] | –
48 | C[C@H](NC(N)=O)C(=O)OCC(=O)NCc1cccs1 | inactive | –

Row | SMILES | Potency | activity change, negative = growth inhibition
49 | COc1cc2c(cc1OC)CN(C(=O)CCNS(=O)(=O)c1ccccc1F)CC2 | inconclusive [inhibitor, single point] | –
50 | Cc1ccc(C)c(C(=O)COC(=O)C2CCN(c3ccc(C(F)(F)F)cn3)CC2)c1 | inconclusive [inhibitor, partial curve, poor fit] | –
51 | C=C(C)COC(=O)c1ccccc1C(=O)OCC1(C)CO1 (stereo not given) | inconclusive [inhibitor, single point] | –
52 | COCCSc1nnc(NC(=O)c2ccc3c(c2)OCO3)s1 | inactive | –
53 | CCC(=O)c1ccc(Oc2nc3c(c(=O)n(C)c(=O)n3C)n2CC)cc1 | inconclusive [inhibitor, partial curve] | –
54 | CCOC(=O)C1CCN(C(=O)COC(=O)/C=C/c2ccc([N+](=O)[O-])cc2)CC1 | inconclusive [inhibitor, single point] | –
55 | CCOc1ccc(S(=O)(=O)NCCCN2CCCC2=O)cc1 | inactive | –
56 | CCc1ccc(-c2cc(C(=O)N/N=C/c3ccco3)[nH]n2)cc1 | inconclusive [inhibitor, partial curve] | –
57 | CC(C(=O)NC1CCCC1)n1c(-c2ccncc2)nc2ccccc21 (stereo not given) | inactive | –
58 | Cn1c(=O)n(C)c2cc(C(=O)Nc3ccc(Br)cc3)ccc21 | inactive | –
59 | Cc1nc2ccc(NC(=O)CSc3ccccc3)cc2s1 | inconclusive [inhibitor, partial curve] | –
60 | CCOc1ccc2[nH]cc(S(=O)(=O)c3ccc(Cl)cc3)c(=O)c2c1 | active: 9.2 µM | –
61 | CCC(=O)/C=C1/Sc2ccc(OC)cc2N1CCO | inconclusive [inhibitor, single point] | –
62 | COc1ccc2oc(=O)c(C(=O)N3CCN(c4ccc(C)cc4)CC3)cc2c1 | inconclusive [inhibitor, single point] | –
63 | CCOc1ccc(NC(=O)Nc2ccc(Br)cn2)cc1 | inconclusive [inhibitor, partial curve, poor fit] | –
64 | CCC(=O)N1CCC(C)(C(=O)Nc2ccc(OC)c(OC)c2)C1 (stereo not given) | inactive | –
65 | Cc1cc(NC(=O)CSc2nnc(-c3ccc(O)cc3)o2)no1 | inactive | –
66 | COc1cccc(CNC(=O)c2cc(S(=O)(=O)N3CCCCC3)c[nH]2)c1 | inconclusive [inhibitor, single point] | –
67 | COc1ccc(/C=C/C(=O)NC(=S)Nc2ccc(Br)cn2)cc1 | inconclusive [inhibitor, partial curve] | –
68 | COc1ccc2nc(NC(C)=O)sc2c1 | inconclusive [inhibitor, single point] | –
69 | OCC1(Cc2ccc(Cl)cc2)CCN(Cc2ccccc2F)CC1 | inconclusive [inhibitor, single point] | –
70 | COc1ccc(C(=O)c2sc3nc(-c4ccc(OC)cc4)ccc3c2N)cc1 | inactive | –

From PubChem BioAssay AID686978 (National Center for Advancing Translational Sciences (NCATS), 2013)
